From the RNAGym collection of RNA variant scans (doi:10.1093/nar/gkz1192)
Read counts are not given, so values of variants with three or more changes are uncertain.

B1: CPEB3 Ribozyme (parent)
chain: UAACAGGGGGCCACAGCAGAAGCGUUCACGUCGCAGCCCCUGUCAGAUUCUGGUGAAUCUGCGAAUUCUGCUGUAUAUCUC

Variants of: B1
Assay: self-cleavage, relative activity (ratio to wild type); higher = more cleavage; in vitro, sequencing
Method in brief: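 Libraries of CPEB3 self-cleaving ribozyme mutants came from rounds of error-prone PCR and carried barcodes, which DNA sequencing matched to variants. In vitro transcription used T7 RNA polymerase at 37°C for 5 hours, with a further 15 min in DNase I before EDTA stopped the reaction; the ribozymes cleaved during both steps. The RNA was reverse transcribed with template switching and sequenced on Illumina. Relative activity is the cleaved/total read fraction of a variant divided by that of the unmutated ribozyme, averaged over three batches with at least 5 reads.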

Variant | self-cleavage
UAACAGAGAGCCUCAGCGGAAGCGUUCACGUCGCAGCCCCUGUCAGAUUCUGGUGAAUCUGCGAAUUCUGCUGUAUAUUUC [G7A G9A A13U A18G C79U] | 0.06
UAACAGAGAGCCACGGCAGAAGCGUGCACGUCGCAGCCCCUGACAGAUUCUGGCGAAUCUGCGAAUUCUGCUGUAAAUCUC [G7A G9A A15G U26G U43A U54C U76A] | 0.04
UAACAGAGAGCCACAGCGGAAGCGUUCACGUCGCAGCCCCUGUCAGAUUCUGGCGAGCCUGCGAAUUCUGCUGUAUAUCUC [G7A G9A A18G U54C A57G U58C] | 0.09
UAACAGAGAGCCACAGCAGAAGCGUUCACGUCGCAGCCCCUGUCUGAUUCUGGUGGAUCUGCGGAUUCUGCUGUGUAUCUC [G7A G9A A45U A56G A64G A75G] | 0.19
UAACAGAGAGCCACAGCAGAAGCGUUCACGUCGCAGCCCCUGUCAGAUUCUGGUGAAUCAGCGAAUGCUGCUGUAUAUCUC [G7A G9A U60A U67G] | 0.06
UAACAGAGGACCUCAGCAGAAGCGUUCACGUCGCAGCCCCUGUCAGAUUCUGGUGUAUCUGCGAAUUCUGCUGUAUAUCCC [G7A G10A A13U A56U U80C] | 0.08
UAACAGAGGACCACAGCAGAAGCGCCCACGCCGCAGCCCCUGUCAGAUUCUGGUGAGUCUGCGAAUUCUGCUGUAUAUCUC [G7A G10A U25C U26C U31C A57G] | 0.05
UAACAGAGGACCACAGCAGAAGCGUUCACGCCGCAGCCCCUGUCAGAUUCUGGUGAAUCUGCGAAUUCUGCUGUAUAUCUC [G7A G10A U31C] | 0.16
UAACAGAGGACCACAGCAGAAGCGUUCACGUCGCAGCCCCUGGCAGAUCCUGGUGAAUCUGCGAAUCCUGCUGUAUGUCUC [G7A G10A U43G U49C U67C A77G] | 0.03
UAACAGAGGACCACAGCAGAAGCGUUCACGUCGCAGCCCCUGUCAGAUUCUGGUGAAUCUGCGAAUUCUGCUGCAUAUCUC [G7A G10A U74C] | 0.08
UAACAGAGGCCCACAGCAGAGGCGUCCACGUCGCAGCCCCUGUCAGAUUCUGGUGAACCUGCGAAUUCUGCUGUAUAUCUC [G7A G10C A21G U26C U58C] | 0.05
UAACAGAGGUCCACAGCAGAAGCGUUCACGUCGCAGCCCCUGUCAGAUUCUGGAGAUUCUGCGAAUUCUGCUGUAUAUCUC [G7A G10U U54A A57U] | 0.32
UAACAGAGGGCCACAACAGAAGCGUUCACGCCGCAGCCCCCGUCAGAUUCUGGUGAAUCUGCGAAUUCUGCUGUAUACCUC [G7A G16A U31C U41C U78C] | 0.06
UAACAGAGGGCCACAUCAGAAGCGUUCACGUCGCAGCCCCUGUCAGAUUCUGGUGAAUCUGCGAAUUCUGCAGUAUAUCUC [G7A G16U U72A] | 0.14
UAACAGAGGGCCACAGCAUAAGCGUUCGCGUCGCAGCCCCUGUCAGAUUCUGGUGAAUCUGCGUAUUCUGCUGUAUAUCUC [G7A G19U A28G A64U] | 0.07
UAACAGAGGGCCACAGCAUAAGCGUUCACGUCGCAGCCCCUGUCAGAUUCUGGUGAAUCUGCGAAUUCCGCUGUAUAUCUC [G7A G19U U69C] | 0.05
UAACAGAGGGCCACAGCAGAAGCAUUCACGUCGCAGCCCCUGUCAGAUUCUGGUGAAUCUGCGGAUUCUGCUGUACAUCUC [G7A G24A A64G U76C] | 0.17

Variant | self-cleavage
UAACAGAGGGCCACAGCAGAAGCAUCCUCGUCGCAGCCCCUGUCAGAUUCUGGUGAAUCUGCGAAUUCUGCUGUAUAUCUC [G7A G24A U26C A28U] | 0.3
UAACAGAGGGCCACAGCAGAAGCAUUCACGUCGCAGCCCCCGUCGGAUCCUGGUGGAUCUGCGAAUUCUGCUGUAUAUCUC [G7A G24A U41C A45G U49C A56G] | 0.05
UAACAGAGGGCCACAGCAGAAGCAUUCACGUCGCAGCCCCUGUCAGAUUCUGGUGAAACUGCGAAUUCUGCUGUAUGUCUC [G7A G24A U58A A77G] | 0.08
UAACAGAGGGCCACAGCAGAAGCUUUCACGUCGCAGCCCCUGUCAGAUUCUGGCGAAUCUGCGAAUUCUGAUGUAUAUCUC [G7A G24U U54C C71A] | 0.1
UAACAGAGGGCCACAGCAGAAGCGUUCACAUCGAAGCCCCUGUCAGAUUCUGGUGAAUCUGAGAAUUCUGCUGUAUAUCUC [G7A G30A C34A C62A] | 0.07
UAACAGAGGGCCACAGCAGAAGCGUUCACUUCGCAGCCCCUGUCAGAUUCCGGUGAAUCUGCGAAUUCUGCUGUAUAUCUC [G7A G30U U51C] | 0.05
UAACAGAGGGCCACAGCAGAAGCGUUCACGUCACGGCCCCUGUCAGAUUCUGGUGUAUCUGCGAAUUCUGCUGUAUAUCUC [G7A G33A A35G A56U] | 0.14
UAACAGAGGGCCACAGCAGAAGCGUUCACGUCACAGCCCCUGUCAGAUUCCGGUGAAUCUGCGAAUUCUGCUGUAUAUCUC [G7A G33A U51C] | 0.06
UAACAGAGGGCCACAGCAGAAGCGUUCACGUCGCAUCCCCUGUCGGGUUCUGGUGAAUCUGCGAAUUCUGCUGUAUAUCUC [G7A G36U A45G A47G] | 0.11
UAACAGAGGGCCACAGCAGAAGCGUUCACGUCGCAGCCCCUGUCAGAUUCUAGUGAAUCCGCGAAUUCUGCUGUAUAUCUC [G7A G52A U60C] | 0.07
UAACAGAGGGCCACAGCAGAAGCGUUCACGUCGCAGCCCCUGUCAGAUUCUGUUGAAUCUGCGAGUUCUGCUGUAUAUCUC [G7A G53U A65G] | 0.01
UAACAGAGGGCCACAGCAGAAGCGAUCGCGUCGCAGCCCCAGCCAGAUUCUGGUGAAUCUGCGAAUUCUGCUGUAUAUCUC [G7A U25A A28G U41A U43C] | 0.06
UAACAGAGGGCCACAGCAGAAGCGAUCACGUCGCGGCCCCAGUCAGAUUCUGGUGAGUCUGCGAAUUCUGCUGUAUAUCUC [G7A U25A A35G U41A A57G] | 0.08
UAACAGAGGGCCACAGCAGAAGCGAUCACGUCGCAGCCACUGUCAGAUUCUGGUGAGUCUGCGAAUUCUGCUGUAUAUCUC [G7A U25A C39A A57G] | 0.07
UAACAGAGGGCCACAGCAGAAGCGAUCACGUCGCAGCCCCCGUCAGAUUCUGGUGAAUCUGCGAAUUCUGCUGUGCAUCUC [G7A U25A U41C A75G U76C] | 0.19
UAACAGAGGGCCACAGCAGAAGCGAUCACGUCGCAGCCCCUGUCAGAUUCUGGUGAAUCUGCGAAUUCUGCUGAAUAUCUC [G7A U25A U74A] | 0.07
UAACAGAGGGCCACAGCAGAAGCGCUCACGUCGCAGCCCUAGUCAGAUUCUGGUGAAUCUGCGAAUUCUGCUGUAUGUCUC [G7A U25C C40U U41A A77G] | 0.04
